Paper PMC12820563
This is one part of the list. The list includes weakly bound sequences.

Target: T1, MBP-FoxP3dN (UniProt Q99JB6)
T1 sequence: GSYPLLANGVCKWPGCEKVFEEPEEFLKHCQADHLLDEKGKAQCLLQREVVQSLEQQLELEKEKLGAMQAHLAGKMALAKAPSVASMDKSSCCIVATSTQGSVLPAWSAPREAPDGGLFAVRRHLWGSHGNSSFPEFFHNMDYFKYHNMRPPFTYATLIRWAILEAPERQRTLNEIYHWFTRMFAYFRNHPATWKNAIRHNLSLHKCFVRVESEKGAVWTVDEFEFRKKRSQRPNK
Assay: PD-seq (MBP pull-down with sequencing)
Details: 20 mM Tris-HCl pH 7.5, 100 mM NaCl, 1.5 mM MgCl2, 0.4 uM protein, 0.1 uM dsDNA library, 30 min, room temperature, amylose pull-down; high values mean tight binding; double strand, one strand shown

Q: Which binding signal (RPM ratio (pull-down/input)) does the source give for “GATGATTGTTCTCCCAGCTGATGAATTTTTTCACTCGAGTAAACAAATTTTCCTAATCTTTCTGTTCAAGCGCCATCTAC” here?
A: 0.248

Q: How did the binding signal (RPM ratio (pull-down/input)) turn out when “GATGATTGTTCTCCCAGCTGATGAATTAGTATCCTCGAGTAAACAAATTTTCCTAATCTTTCTGTTCAAGCGCCATCTAC” was run?
A: 2.39

Q: “GATGATTGTTCTCCCAGCTGATGAATTTATTTCCTCGAGTAAACAAATTTTCCTAATCTTTCTGTTCAAGCGCCATCTAC” was tested. Which binding signal (RPM ratio (pull-down/input)) did it give?
A: 3.45

Q: With “GATGATTGTTCTCCCAGCTGATGAATTTGCTACATCGAGTAAACAAATTTTCCTAATCTTTCTGTTCAAGCGCCATCTAC” as the sequence, how does the binding signal (RPM ratio (pull-down/input)) read?
A: 0.944

Q: With “GATGATTGTTCTCCCAGCTGATGAATTGCTTAATTCGAGTAAACAAATTTTCCTAATCTTTCTGTTCAAGCGCCATCTAC” as the sequence, how does the binding signal (RPM ratio (pull-down/input)) read?
A: 0.562

Q: For “GATGATTGTTCTCCCAGCTGATGAATTAGGGTGGTCGAGTAAACAAATTTTCCTAATCTTTCTGTTCAAGCGCCATCTAC”, which binding signal (RPM ratio (pull-down/input)) is on record?
A: 0.516

Q: With “GATGATTGTTCTCCCAGCTGATGAATTGTTCCACTCGAGTAAACAAATTTTCCTAATCTTTCTGTTCAAGCGCCATCTAC” as the sequence, how does the binding signal (RPM ratio (pull-down/input)) read?
A: 0.496

Q: With “GATGATTGTTCTCCCAGCTGATGAATTATTAACATCGAGTAAACAAATTTTCCTAATCTTTCTGTTCAAGCGCCATCTAC” as the sequence, how does the binding signal (RPM ratio (pull-down/input)) read?
A: 0.662

Q: Which binding signal (RPM ratio (pull-down/input)) does the source give for “GATGATTGTTCTCCCAGCTGATGAATTACTCGGGTCGAGTAAACAAATTTTCCTAATCTTTCTGTTCAAGCGCCATCTAC” here?
A: 0.235

Q: For “GATGATTGTTCTCCCAGCTGATGAATTTGTAGAATCGAGTAAACAAATTTTCCTAATCTTTCTGTTCAAGCGCCATCTAC”, which binding signal (RPM ratio (pull-down/input)) is on record?
A: 0.778

Q: For “GATGATTGTTCTCCCAGCTGATGAATTGGATTTTTCGAGTAAACAAATTTTCCTAATCTTTCTGTTCAAGCGCCATCTAC”, which binding signal (RPM ratio (pull-down/input)) is on record?
A: 0.676

Q: How did the binding signal (RPM ratio (pull-down/input)) turn out when “GATGATTGTTCTCCCAGCTGATGAATTCCCAAATTCGAGTAAACAAATTTTCCTAATCTTTCTGTTCAAGCGCCATCTAC” was run?
A: 0.278

Q: Which binding signal (RPM ratio (pull-down/input)) does the source give for “GATGATTGTTCTCCCAGCTGATGAATTTTGGAGGTCGAGTAAACAAATTTTCCTAATCTTTCTGTTCAAGCGCCATCTAC” here?
A: 0.257

Q: “GATGATTGTTCTCCCAGCTGATGAATTGTCTTTATCGAGTAAACAAATTTTCCTAATCTTTCTGTTCAAGCGCCATCTAC” was tested. Which binding signal (RPM ratio (pull-down/input)) did it give?
A: 1.08

Q: Which binding signal (RPM ratio (pull-down/input)) does the source give for “GATGATTGTTCTCCCAGCTGATGAATTAACGTGTTCGAGTAAACAAATTTTCCTAATCTTTCTGTTCAAGCGCCATCTAC” here?
A: 0.622

Q: How did the binding signal (RPM ratio (pull-down/input)) turn out when “GATGATTGTTCTCCCAGCTGATGAATTACCTGTTTCGAGTAAACAAATTTTCCTAATCTTTCTGTTCAAGCGCCATCTAC” was run?
A: 0.472

Q: How did the binding signal (RPM ratio (pull-down/input)) turn out when “GATGATTGTTCTCCCAGCTGATGAATTGTGTGACTCGAGTAAACAAATTTTCCTAATCTTTCTGTTCAAGCGCCATCTAC” was run?
A: 2.06

Q: With “GATGATTGTTCTCCCAGCTGATGAATTACCAACATCGAGTAAACAAATTTTCCTAATCTTTCTGTTCAAGCGCCATCTAC” as the sequence, how does the binding signal (RPM ratio (pull-down/input)) read?
A: 2.19
